Where two headings read alike, the source gives them in different places.
Target: Recombinant heterodimeric HCV NS3/NS4A protease (strain 1a) (Hepatitis C virus genotype 1a, UniProt P27958)
Test: Spectrophotometric assay for HCV protease inhibitory activity (chromogenic ester substrates)
Type: biochemical, hepatitis C virus (strain 1a)
Method: Assay for HCV Protease Inhibitory Activity:
Spectrophotometric Assay: Spectrophotometric assays for the HCV serine protease was performed on the inventive compounds by following the procedure described by R. Zhang et al, Analytical Biochemistry, 270 (1999) 268-275, the disclosure of which is incorporated herein by reference. The assay based on the proteolysis of chromogenic ester substrates is suitable for the continuous monitoring of HCV NS3 protease activity. The substrates were derived from the P side of the NS5A-NS5B junction sequence (Ac-DTEDVVX(Nva), where X=A or P) whose C-terminal carboxyl groups were esterified with one of four different chromophoric alcohols (3- or 4-nitrophenol, 7-hydroxy-4-methyl-coumarin, or 4-phenylazophenol). Presented below are the synthesis, characterization and application of these novel spectrophotometric ester substrates to high throughput screening and detailed kinetic evaluation of HCV NS3 protease inhibitors. Materials and Methods:
Protein concentrations were determined by the Biorad dye method using recombinant HCV protease standards previously quantified by amino acid analysis. Prior to assay initiation, the enzyme storage buffer (50 mM sodium phosphate pH 8.0, 300 mM NaCl, 10% glycerol, 0.05% lauryl maltoside and 10 mM DTT) was exchanged for the assay buffer (25 mM MOPS pH 6.5, 300 mM NaCl, 10% glycerol, 0.05% lauryl maltoside, 5 μM EDTA and 5 μM DTT) utilizing a Biorad Bio-Spin P-6 prepacked column.
Protease Assay: HCV protease assays were performed at 30° C. using a 200 μl reaction mix in a 96-well microtiter plate. Assay buffer conditions (25 mM MOPS pH 6.5, 300 mM NaCl, 10% glycerol, 0.05% lauryl maltoside, 5 μM EDTA and 5 μM DTT) were optimized for the NS3/NS4A heterodimer (D. L. Sali et al, ibid.)). Typically, 150 μl mixtures of buffer, substrate and inhibitor were placed in wells (final concentration of DMSO≦4% v/v) and allowed to preincubate at 30° C. for approximately 3 minutes. Fifty μls of prewarmed protease (12 nM, 30° C.) in assay buffer, was then used to initiate the reaction (final volume 200 μl). The plates were monitored over the length of the assay (60 minutes) for change in absorbance at the appropriate wavelength (340 nm for 3-Np and HMC, 370 nm for PAP, and 400 nm for 4-Np) using a Spectromax Plus microtiter plate reader equipped with a monochrometer (acceptable results can be obtained with plate readers that utilize cutoff filters). Proteolytic cleavage of the ester linkage between the Nva and the chromophore was monitored at the appropriate wavelength against a no enzyme blank as a control for non-enzymatic hydrolysis. The evaluation of substrate kinetic parameters was performed over a 30-fold substrate concentration range (−6-200 μM). Initial velocities were determined using linear regression and kinetic constants were obtained by fitting the data to the Michaelis-Menten equation using non-linear regression analysis (Mac Curve Fit 1.1, K. Raner). Turnover numbers (kcat) were calculated assuming the enzyme was fully active.
Evaluation of Inhibitors and Inactivators: The inhibition constants (Ki*) for the competitive inhibitors Ac-D-(D-Gla)-L-1-(Cha)-C-OH (27), Ac-DTEDVVA(Nva)-OH and Ac-DTEDWP(Nva)-OH were determined experimentally at fixed concentrations of enzyme and substrate by plotting vo/vi vs. inhibitor concentration ([I]o) according to the rearranged Michaelis-Menten equation for competitive inhibition kinetics: vo/vi=1+[I]o/(Ki(1+[S]o/Km)), where vo is the uninhibited initial velocity, vi is the initial velocity in the presence of inhibitor at any given inhibitor concentration ([I]o) and [S]o is the substrate concentration used. The resulting data were fitted using linear regression and the resulting slope, 1/(Ki(1+[S]o/Km), was used to calculate the Ki* value.

[1] = Table 2, 30° C., pH 6.5, read-out: Activity Ki* (nM) (rating)
[2] = Table 1, 30° C., pH 6.5, read-out: Binding Activity (Ki rating)

Compound	Ki [1]	Ki [2]	also measured
CC1(C)[C@@H]2[C@H]3C(=O)N[C@H](C(=O)C(=O)NC4CC4)CCCCCCCOC[C@H](NC(=O)NC4(CS(=O)(=O)C(C)(C)C)CCCCC4)C(=O)N3C[C@@H]21 [Example 62]	< 100 nM	–	–
C=CCNC(=O)C(=O)[C@@H]1CCCCCCCOC[C@H](NC(=O)N[C@H](C(=O)C2CC2)C2CCCCC2)C(=O)N2C[C@H]3[C@@H]([C@H]2C(=O)N1)C3(C)C [Example 54]	100 to 1000 nM	–	–
C=CCNC(=O)C(=O)[C@@H]1CCCCNC(=O)OCCC[C@H](NC(=O)N[C@H](CN2C(=O)CC(C)(C)CC2=O)C(C)(C)C)C(=O)N2C[C@H]3[C@@H]([C@H]2C(=O)N1)C3(C)C [Example 72]	< 100 nM	–	–
C=CCNC(=O)C(=O)[C@@H]1CCCCCCCCC[C@H](NC(=O)N[C@H](CN2Cc3sccc3S2(=O)=O)C(C)(C)C)C(=O)N2C[C@H]3[C@@H]([C@H]2C(=O)N1)C3(C)C [Example 48]	< 100 nM	–	–
CCNC(=O)C(=O)[C@@H]1CCCCCCCCC[C@H](NC(=O)N[C@H](CN(C)S(=O)(=O)c2cccs2)C(C)(C)C)C(=O)N2C[C@H]3[C@@H]([C@H]2C(=O)N1)C3(C)C [Example 37]	< 100 nM	–	–
CC(C)(C)OC(=O)[C@@H](NC(=O)N[C@@H]1C(=O)N2C[C@H]3[C@@H]([C@H]2C(=O)N[C@H](C(=O)C(N)=O)CCCCCCCCCC1(C)C)C3(C)C)C(C)(C)C [Example 18]	–	< 100 nM	–
C=CCNC(=O)C(=O)[C@@H]1CCCCCCCCC[C@H](NC(=O)[C@@H](NC(=O)c2cnccn2)C2CCCCC2)C(=O)N2C[C@H]3[C@@H]([C@H]2C(=O)N1)C3(C)C [Example 50]	< 100 nM	–	–
Cc1ccc(S(=O)(=O)CNC(=O)C(=O)[C@@H]2CCCCCCCCCC[C@H](NC(=O)OC(C)(C)C)C(=O)N3C[C@H]4[C@@H]([C@H]3C(=O)N2)C4(C)C)cc1 [Example 13]	–	< 100 nM	–
CN(C)C(=O)[C@@H](NC(=O)CNC(=O)C(=O)[C@@H]1CCCCCCCCCC(C)(C)[C@H](NC(=O)OC(C)(C)C)C(=O)N2C[C@H]3[C@@H]([C@H]2C(=O)N1)C3(C)C)c1ccccc1 [Example 14]	–	< 100 nM	–
CCCNC(=O)C(=O)[C@@H]1CCCCCCCCC[C@H](NC(=O)N[C@H](CN(C)S(=O)(=O)c2cccs2)C(C)(C)C)C(=O)N2C[C@H]3[C@@H]([C@H]2C(=O)N1)C3(C)C [Example 42]	< 100 nM	–	–
CC(C)COC(=O)N[C@H]1CCCCCCCC(C(=O)C(=O)NCC(=O)N[C@H](C(=O)N(C)C)c2ccccc2)NC(=O)[C@@H]2CCCN2C1=O (some centres unmarked) [Example 15]	–	≥ 1000 nM	–
CC(C)COC(=O)N[C@H]1CCCCCCCC(C(=O)C(=O)NCC(=O)N[C@H](C(=O)O)c2ccccc2)NC(=O)[C@@H]2CCCN2C1=O (some centres unmarked) [Example 84]	–	–	Ki (Table 2A, 30° C., pH 6.5, read-out: Binding Activity (Ki rating)): 100 to 1000 nM
CN(C)C(=O)[C@@H](NC(=O)CNC(=O)C(=O)[C@@H]1CCCC/C=C/CCCC[C@H](NC(=O)OCc2ccccc2)C(=O)N2C[C@@H]3OC(C)(C)C[C@@H]3[C@H]2C(=O)N1)c1ccccc1 [Example 9]	–	< 100 nM	–
CC1(NC(=O)N[C@@H]2C(=O)N3C[C@H]4[C@@H]([C@H]3C(=O)N[C@H](C(=O)C(N)=O)CCCCCCCCCC2(C)C)C4(C)C)CCCCC1 [Example 19]	–	< 100 nM	–
CC1(C)CC(=O)N(C[C@@H](NC(=O)N[C@H]2COCCCCCCC[C@@H](C(=O)C(=O)NC3CC3)NC(=O)[C@@H]3[C@@H]4[C@H](CN3C2=O)C4(C)C)C(C)(C)C)C(=O)C1 [Example 60]	< 100 nM	–	–
CC(C)(C)OC(=O)N[C@H]1CCCCCCCCCC[C@@H](C(=O)C(=O)NCC(=O)NCc2ccccc2)NC(=O)[C@@H]2[C@@H]3[C@H](CN2C1=O)C3(C)C [Example 8]	–	< 100 nM	–
CC1(C)[C@@H]2[C@H]3C(=O)N[C@H](C(=O)C(N)=O)CCCCCCCCC[C@H](NC(=O)N[C@H](C(=O)C4CC4)C4CCCCC4)C(=O)N3C[C@@H]21 [Example 21]	–	< 100 nM	Ki (Table 3, 30° C., pH 6.5, read-out: Activity Ki*): 11 nM
CCNC(=O)C(=O)[C@@H]1CCCCCCCCC[C@H](NC(=O)OC(C)(C)C)C(=O)N2C[C@H]3[C@@H]([C@H]2C(=O)N1)C3(C)C [Example 34]	< 100 nM	–	–
C=CCNC(=O)C(=O)[C@@H]1CCCCCCCCC[C@H](NC(=O)NC2(Cc3ccccn3)CCCCC2)C(=O)N2C[C@H]3[C@@H]([C@H]2C(=O)N1)C3(C)C [Example 49]	< 100 nM	–	–

Source: US7592419B2, “Macrocyclic inhibitors of hepatitis C virus NS3-serine protease” (Schering Corporation, priority 2003, dated 2009)
